PubChem BioAssay AID624296 (National Center for Advancing Translational Sciences (NCATS), 2012)
The whole screen tested about 350,000 compounds, of which about 9,900 (2.8%) were called active. The inconclusive results got no clear call from the source; some entries with a clear call stand among them for comparison. The call rests on the fitted dose curve; in most records, active means well fitted activation curve with a large enough effect; inconclusive means small, poorly fitted or top-dose-only effect; inactive means no such curve, though single readings can be large or run the other way. Potencies of inconclusive entries are left out as doubtful fits.

Assay: A quantitative high throughput screen for small molecules that induce DNA re-replication in MCF 10a normal breast cells. Further: nearly all actives have a fitted effect of over 50% in size.
Details: MCF 10A DNA re-replication, Hoechst nuclear intensity, 48 h; series mostly up to 46.1 µM
Potency means the concentration at half of the fitted maximal effect; tags describe the fitted curve by direction and shape.

Row | Structure (SMILES) | Potency
1 | c1ccc2c(OCCCCN3CCOCC3)cccc2c1 | inconclusive [activator, single point]
2 | CCc1sc(N2C(=O)C3C4CCC(C4=C(C)C)C3C2=O)nc1-c1ccccc1 (centres undefined) | inconclusive [activator, partial curve, poor fit]
3 | CC(Oc1ccc2ccccc2c1)C(=O)NNC(=S)NC(=O)c1ccco1 (centres undefined) | inconclusive [activator, full curve]
4 | CCOc1ccc(N(CC(=O)Nc2cc(Cl)ccc2C)S(C)(=O)=O)cc1 | inconclusive [activator, single point]
5 | CC(C)OCCCn1c(=N)c(C(N)=S)cc2c(=O)n3ccccc3nc21 | active: 9.2 µM
6 | Cc1c(C(=O)N2CCCCC2)c(S(=O)(=O)NCCc2ccc(Cl)cc2)c(C)n1C | inactive
7 | COc1ccc(S(=O)(=O)Nc2ccc3c(c2)C(=O)N([C@@H](C)CO)C[C@H](C)[C@H](CN(C)S(=O)(=O)c2ccc(F)cc2)O3)cc1 | inactive
8 | CN1CCc2c(sc3c2C(=O)NC(c2ccc(-c4ccc(Cl)cc4)o2)N3)C1 (centres undefined) | active: 23.1 µM
9 | Cc1c(C(=O)N2CC[C@@H](N3CCC(O)CC3)[C@H](O)C2)[nH]c2ccc(Cl)cc12 | inactive
10 | CCN(CC)CCn1c(OC)cc(=O)[nH]c1=O | inconclusive [activator, single point]
11 | CNc1nc(C)cc(C)c1S(=O)(=O)c1ccc(Cl)cc1 | inactive
12 | O=C(Nc1ccc2c(c1)OCCO2)C1CCN(S(=O)(=O)c2cccc3nsnc23)CC1 | inconclusive [activator, partial curve]
13 | COC(=O)c1ccc(/C=N/OCC(=O)NC2CCCC(C)C2C)cc1 (centres undefined) | inactive
14 | CCOC(=O)Cn1cc(/C=N/N2C(=O)C3C4C=CC(C4)C3C2=O)c2ccccc21 (centres undefined) | inconclusive [activator, partial curve, poor fit]
15 | O=C(CN1C(=O)S/C(=C\C=C\c2ccccc2)C1=O)Nc1cccc(O)c1 | inconclusive [activator, single point]
16 | COc1ccccc1C1c2ccc3ccccc3c2Oc2ncn(CCCO)c(=N)c21 (centres undefined) | inconclusive [activator, single point]
17 | O=C(NC1CCCC1)C(c1ccccc1F)N(C(=O)c1csnn1)c1ccccc1 (centres undefined) | inactive
18 | COc1ccc(C(=O)Nc2cc(C(C)=O)c(C)oc2=O)cc1 | inconclusive [activator, single point]
19 | Cc1ccc(C2Nc3ccccc3C(=O)N2Cc2ccco2)cc1 (centres undefined) | inconclusive [activator, single point]
20 | CCOC(=O)N1CCN(c2nc(C(F)(F)F)nc3c(C)cc(C)cc23)CC1 | inconclusive [activator, partial curve, poor fit]
21 | CCOC(=O)c1c(NC(=O)CN2CCN(c3ccc(Cl)cc3)CC2)sc(C)c1C | inconclusive [activator, single point]
22 | Cc1c(C(=O)OCC(=O)N2CC(=O)Nc3ccccc32)oc2ccc(Br)cc12 | inconclusive [activator, single point]

Row | Structure (SMILES) | Potency
23 | O=C(Nc1ccc(N2CCOCC2)c(Cl)c1)c1c(F)c(F)c(F)c(F)c1F | inconclusive [activator, partial curve, poor fit]
24 | O=C(Nc1cccc(C(=O)N2CCOCC2)c1)C1CCCC1 | inactive
25 | Cn1c(-c2ccccc2)c(C(=O)CCl)c2ccccc21 | inconclusive [activator, single point]
26 | CC[C@@]1(C(=O)OC)N[C@H](CN(C)C(=O)C2CCCCC2)[C@@H]2C(=O)N(Cc3ccccc3)C(=O)[C@@H]21 | inconclusive [activator, full curve, poor fit]
27 | Cc1cc(N)n2nc(-c3ccccc3)cc2n1 | inconclusive [activator, single point]
28 | CSc1ncc(CN2CCCCC2C(=O)Nc2ccc(Oc3ccccc3)nc2)cn1 (centres undefined) | inconclusive [activator, single point]
29 | Cc1cc2ccc(C)c(C)c2nc1SCC(=O)c1cccs1 | inconclusive [activator, single point]
30 | Cc1cc(NC(=O)c2ccc([N+](=O)[O-])o2)ccc1NC(=O)c1ccco1 | inconclusive [activator, partial curve, poor fit]
31 | CC(=O)c1c(N2CCCCC2)nc(=O)n(-c2ccccc2)c1C | inactive
32 | Cc1ccc(C(=O)Oc2ccccc2C(=O)N2CCOCC2)cc1 | inconclusive [activator, partial curve, poor fit]
33 | Cc1ccc(C)c(NC(=O)COc2cccc3c2CCN(Cc2ccccc2)C3=O)c1 | inactive
34 | CCc1ccccc1N(CC(=O)NCc1ccco1)C(=O)c1snc(C(N)=O)c1N | inconclusive [activator, partial curve, poor fit]
35 | Cc1ccc(-c2nc(S(=O)(=O)c3ccc(C)cc3)c(N3CCOCC3)o2)cc1 | inconclusive [activator, full curve, poor fit]
36 | Cc1ccc(C(=O)CC(=O)c2ccccc2C)c(O)c1 | inconclusive [activator, single point]
37 | CCn1c(=O)n(CC)c2cc(S(=O)(=O)Nc3ccccc3C)c(C)cc21 | inconclusive [activator, partial curve]
38 | Oc1nc(Nc2ccccc2)sc1/C=C1\C=Nc2ccccc21 | active: 20.6 µM
39 | CC1(C)CC(=O)C(N=Nc2cc(C(F)(F)F)ccc2Cl)=C(O)C1 | active: 0.517 µM
40 | O=C(NC1CCCCC1)C(c1cccnc1)N(CCc1ccccc1)C(=O)Cc1cccs1 (centres undefined) | inactive
41 | O=C1C2C3CCC(C3NCc3ccccc3)C2C(=O)N1Cc1ccccc1 (centres undefined) | inactive
42 | Cc1ccc(S(=O)(=O)c2c(C)cc(C)nc2Cl)c(C)c1 | inactive
43 | C(#Cc1ccccc1)C[N+]1(CC#Cc2ccccc2)CCCCC1 | inactive
44 | CC(=O)c1ccc(OCc2cc(C(=O)N3CCC(c4ccncc4)CC3)no2)cc1 | inconclusive [activator, partial curve]
